Hit rate of the full screen: of about 39,000 compounds, about 220 (0.56%) showed activity. The list shows a part of the results.
System: Escherichia coli K-12 BW25113
Assay: relative growth (OD600 normalised to plate interquartile mean) (fraction); higher = less growth inhibition, active = 0.2 or less
Settings: 50 µM; LB; incubation time: overnight (16-24 h)
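Further: static incubation at 37 °C against the wild-type strain, values averaged over two biological replicates.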

SMILES	relative growth
COc1cccc(S(=O)(=O)N2C[C@@H](O)COC[C@H]3O[C@H](CC(=O)N4CCOCC4)CC[C@@H]32)c1	inactive: 1
C[C@@H]1CN([C@H](C)CO)C(=O)c2cccc(NC(=O)Nc3cccc4ccccc34)c2O[C@@H]1CN(C)S(=O)(=O)c1ccc(Cl)cc1	inactive: 1.01
O=C(Nc1ccc(-c2nc3ccc(NC(=O)c4ccc(Cl)cc4)cc3[nH]2)cc1)c1ccc(Cl)cc1	inactive: 1.04
C[C@@H]1CCCCO[C@H](CN(C)Cc2ccncc2)[C@H](C)CN([C@@H](C)CO)C(=O)c2cc(NC(=O)CCC(F)(F)F)ccc2O1	inactive: 1
COc1ccc(S(=O)(=O)N(C)C[C@@H]2Oc3ccc(NS(=O)(=O)c4ccc(F)cc4)cc3CC(=O)N([C@@H](C)CO)C[C@@H]2C)cc1	inactive: 1.01
NC[C@H]1O[C@H](O[C@H]2[C@@H](O[C@@H]3O[C@H](CO)[C@@H](O)[C@H]3O)[C@@H](O)[C@H](N)C[C@@H]2N)[C@H](N)[C@@H](O)[C@@H]1O	inactive: 0.981
COc1ccc(CN(C)C[C@@H]2OCCCC[C@@H](C)Oc3ccc(NC(=O)Nc4cccc5ccccc45)cc3C(=O)N([C@H](C)CO)C[C@@H]2C)cc1	inactive: 1.01
COc1ccc2c3c(n(c2c1)C)[C@@H](CO)N(C[C@]13CCN(CC1)C(=O)Nc1ccc(cc1F)F)C(=O)Nc1ccc(cc1)F	inactive: 0.991
CO[C@H]1CN(C)C(=O)c2cc(NS(=O)(=O)c3cn(C)cn3)ccc2OC[C@H](C)N(CC2CC2)C[C@H]1C	inactive: 0.988
C[C@H](CO)N1C[C@H](C)[C@H](CN(C)C(=O)c2cccc(F)c2)Oc2cc(-c3cccnc3)ccc2S1(=O)=O	inactive: 1.03
COc1ccc(S(=O)(=O)N(C)C[C@@H]2Oc3ncc(C#Cc4ccccc4)cc3C(=O)N([C@H](C)CO)C[C@@H]2C)cc1	inactive: 0.891
O=c1[nH]c2ccccc2c(=O)n1CCCO	inactive: 0.968
COc1ccc(-c2cnc3c(c2)C(=O)N([C@H](C)CO)C[C@@H](C)[C@H](CN(C)S(=O)(=O)c2ccc(OC)cc2)O3)cc1	inactive: 1
COc1cccc(C(=O)Nc2ccc3c(c2)C(=O)N(C)[C@H]2CC[C@@H](CC(=O)NCCCN4CCOCC4)O[C@H]2CO3)c1	inactive: 1
C[C@H]1CN([C@@H](C)CO)C(=O)CCCn2nncc2CO[C@H]1CN(C)C(=O)Nc1ccc2c(c1)OCCO2	inactive: 0.994
C[C@@H]1CN([C@@H](C)CO)C(=O)c2cccc(NC(=O)Nc3ccc(F)cc3)c2O[C@@H]1CN(C)Cc1ccc(-c2ccccc2)cc1	inactive: 0.994
COC(=O)c1c2oc(c1C(=O)OC)C(=O)N(C)Cc1cn(nn1)C[C@H](Cc1ccccc1)NC(=O)N[C@H](CO)CC2	inactive: 0.992
COc1ccc([Si](C)(C)[C@H]2[C@H](CC(=O)N3Cc4ccccc4C[C@H]3CO)O[C@@]3(C(=O)N(Cc4cccc(N5C(=O)c6cccc7cccc5c67)c4)c4ccccc43)[C@@H]2C)cc1	inactive: 1.01

SMILES	relative growth
Cc1noc(C)c1NC(=O)Nc1ccc2c(c1)C(=O)N([C@H](C)CO)C[C@H](C)[C@@H](CN(C)C(=O)Nc1ccc(C(F)(F)F)cc1)O2	inactive: 0.947
Cc1noc(C)c1NC(=O)Nc1ccc2c(c1)CC(=O)N([C@@H](C)CO)C[C@H](C)[C@@H](CN(C)Cc1ccc(Oc3ccccc3)cc1)O2	inactive: 0.998
CN1C(=O)c2cc(NC(=O)Cc3cccs3)ccc2OC[C@H]2O[C@@H](CC(=O)NCCCN3CCOCC3)CC[C@H]21	inactive: 0.992
C[C@H](CO)N1C[C@H](C)[C@@H](CN(C)S(C)(=O)=O)Oc2ccc(NC(=O)Nc3ccc4c(c3)OCO4)cc2CC1=O	inactive: 1.02
C[C@@H]1CN([C@H](C)CO)C(=O)c2ccccc2-c2ccccc2CO[C@H]1CN(C)C(=O)Nc1ccccc1C(F)(F)F	inactive: 0.986
C[C@H]1CCCCO[C@H](CN(C)CC2CCCCC2)[C@@H](C)CN([C@@H](C)CO)C(=O)c2cc(NC(=O)CCC(F)(F)F)ccc2O1	inactive: 0.966
CC(C)CC#Cc1ccc2c(c1)O[C@H](CN(C)S(=O)(=O)c1cccc(F)c1)[C@H](C)CN([C@@H](C)CO)S2(=O)=O	inactive: 1.05
Cc1noc(C)c1NC(=O)N(C)C[C@@H]1Oc2ccc(NC(=O)CCN3CCOCC3)cc2CC(=O)N([C@H](C)CO)C[C@@H]1C	inactive: 1.01
O=C(Cc1ccncc1)Nc1ccc2c(c1)[C@H]1C[C@H](CC(=O)N3CCc4ccccc4C3)O[C@@H](CO)[C@H]1O2	inactive: 1.01
Cc1ccccc1-c1ncc(-c2ccc(Br)cc2)o1	inactive: 0.982
COc1ccc(NC(=O)Nc2ccc3c(c2)C(=O)N([C@H](C)CO)C[C@H](C)[C@H](CN(C)C(=O)Nc2ccc(OC)cc2)OCCCC[C@H](C)O3)cc1	inactive: 1.05
C[C@@H]1CN([C@H](C)CO)C(=O)c2cccc(NC(=O)c3nc4ccccc4s3)c2O[C@@H]1CN(C)Cc1ccc(C(F)(F)F)cc1	inactive: 0.957
Cc1ccc(S(=O)(=O)Nc2ccc3c(c2)C(=O)N([C@H](C)CO)C[C@@H](C)[C@@H](CN(C)Cc2ccc(C(F)(F)F)cc2)OCCCC[C@H](C)O3)cc1	inactive: 1.02
COc1ccc(S(=O)(=O)Nc2ccc3c(c2)CC(=O)N([C@@H](C)CO)C[C@@H](C)[C@@H](CN(C)S(=O)(=O)c2cn(C)cn2)O3)cc1	inactive: 0.995
C[C@@H]1CN([C@H](C)CO)S(=O)(=O)c2ccc(C#Cc3ccncc3)cc2O[C@@H]1CN(C)C(=O)C1CCCCC1	inactive: 0.983
C[C@H]1CN([C@@H](C)CO)C(=O)c2cc(NC(=O)C3CC3)ccc2O[C@@H]1CN(C)C(=O)Nc1ccc2c(c1)OCO2	inactive: 0.992
COc1ccc(S(=O)(=O)Nc2cccc3c2O[C@H](CN(C)Cc2ccc(-c4ccccc4)cc2)[C@@H](C)CN([C@H](C)CO)C3=O)cc1	inactive: 1.06
C[C@@H]1CN([C@H](C)CO)C(=O)c2cc(NS(=O)(=O)c3ccccc3)ccc2O[C@@H](C)CCCCO[C@H]1CN(C)S(=O)(=O)c1ccc(Cl)cc1	inactive: 0.996

Source: the supplement of paper PMC9446081
